± gives the standard deviation. This is a selection; strong and weak results do not stand in their true shares.
tested on: MIWI (PIWIL1) piRISC loaded with L1MC piRNA (30 nt); test: pre-steady-state target cleavage rate (min^-1); MIWI and MILI are mouse PIWI proteins and EfPiwi is from a freshwater sponge; tags in brackets are library labels; higher = faster piRNA-guided slicing of the target; details: guide: L1MC piRNA 5'p-UAACUAAAUACUAUGCAAGCUGUAGGUCCU; auxiliary factor: 500 nM mouse GTSF1
Method in brief: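 Three pooled Cleave-'n-Seq trials supplied the data, with k3 capped at 0.0001 min^-1. In each, […] transcribed, DNA-blocked target RNA library and 1 nM active affinity-purified piRISC with one synthetic guide reacted in HEPES–potassium acetate buffer at 33 °C for 0–8 or 0–960 min, with or without 500 nM GTSF1 partner protein. Uncleaved targets were sequenced and normalised to depth and to weakly complementary targets. A burst-and-steady-state fit provided the pre-steady-state cleavage rate.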
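Also: 1 nM active piRISC with 0.1 nM target library at 33 °C single turnover.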

Sequence | pre-steady-state target cleavage rate
UGGACCUACAGCUUGCAUAGUAAAAUCAAA | 0.0748 ± 0.023
UCCUGGUAGUGCUUGCAUAGUAUUUUCAAA | 0.0148 ± 0.0054
AGGACCUACAGCUUGCUAAGUAUUUACAAA | 0.0701 ± 0.02
UCCUGGAUGUCGAUGCAUAGUAUUUGAGUUA | 0.0114 ± 0.0044
UCCUGCUACACGAUGCAUAGUAUUUACAAA | 0.0817 ± 0.025
UCCUGGAUGUCGAUGCAUAGUAUUUCAGUUA | 0.0085 ± 0.0052
UCCUGGAACAGCUUGGAUAGUAUUUUCAAA | 0.012 ± 0.0051
UCCUGGAUGUCGAAGCAUAGUAUCUAGUUA | 0.00506 ± 0.0033
UCCUGCUACAGCUUGCAUUGUAUUUUCAAA | 0.136 ± 0.024
UCCUGGAUGUCGAACGUUAAGUAUUUAGUUA | < 0.0001
UCCUGGAACAGCUUGCAUAGUAUUAUGUAA | 0.0143 ± 0.0054
UCCUGCUACAGCUUGCAUAGAUAUUAGUUA | 0.0496 ± 0.017
UCCUGGAUCUCCUUGCAUAGUAUUUACAAA | 0.111 ± 0.021
UCGACCUACAGCUUCCAUAGUAUUUAGAAA | 0.073 ± 0.024
UCCACCUACAGCUUGCAUAGUUAAUUCAAA | 0.14 ± 0.046
UCCUGGAUGUCGAUGCAUAGUAUUUAGUUC [g2:g17:cont:t1C] | 0.00513 ± 0.0032
UCCACCUACAGCUUGCACUAGUAUUUAGUUA | 0.132 ± 0.048
UGGACCUACAGCUUGGUUAGUAUUUAGAAA | 0.231 ± 0.033
UCCUGGAUCAGCUUGCAUAGUAUUAACAAA | 0.252 ± 0.044
UCCUGGAUGAGGUUGCAUAGUAUUAAGUUA | 0.0252 ± 0.0099
UCCUGGAACAGCUAGCAUAGUAUUUAGAAA | 0.395 ± 0.054
UCCUGGAUGUCGAACGAUAGUGUUUAGUUA | < 0.0001
AGGACCUACAGCUUGGUAAGUAUUUAGUUA | 0.094 ± 0.016
UCCUGGAACAGCUUGGUUAGUAUUUAGAAA | 0.362 ± 0.058

Reference: the supplement of paper PMC10338343
